Measured values as given in the supplement of paper PMC4166925.
± gives the standard deviation of the averaged measurements. Over roughly 33,000 sequences, “E-score (dimensionless, -0.5 to 0.5)” has its median near -0.049; the highest 2% begin near 0.37. Some of the results follow.

Tested on: T1, PmTbr T-box DNA-binding domain (GST fusion)
T1 sequence: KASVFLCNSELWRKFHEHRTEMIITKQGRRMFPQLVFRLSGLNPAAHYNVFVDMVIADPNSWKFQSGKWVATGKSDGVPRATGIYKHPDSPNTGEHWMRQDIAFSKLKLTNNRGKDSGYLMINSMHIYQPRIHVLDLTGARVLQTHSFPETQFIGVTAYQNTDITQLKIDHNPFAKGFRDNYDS
Assay: PBM E-score of 8-mer (E-score (dimensionless, -0.5 to 0.5)); Tbr is Tbrain of the sea star Patiria miniata (Pm) or the sea urchin Strongylocentrotus purpuratus (Sp); higher = stronger binding preference; most listed sequences are background and not binding sites
Conditions: the construct has about 5 more residues each side
Summary of the method: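 Expression of GST-fused Tbr T-box DNA-binding domains, each holding the full T-box plus roughly five flanking residues, was carried out in BL21 E. coli at 20 °C, with purification by glutathione affinity chromatography. Universal Agilent arrays made double-stranded by primer extension were incubated with the protein at 200 nM in PBS (pH 7.5), then scanned and quantified. All ungapped 8-mers were scored from probe intensities, and each received an enrichment E-score from the Universal PBM Analysis Suite, averaged over duplicate arrays.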

Row | Sequence | PBM E-score of 8-mer
1 | ATTTACAA | 0.0685 ± 0.047
2 | ATAACTTG | 0.00955 ± 0.11
3 | TCCGTCAA | -0.0448 ± 0.01
4 | AATTTCAG | -0.0884 ± 0.025
5 | AATAACCG | -0.11 ± 0.063
6 | CCTTGCCC | -0.336 ± 0.03
7 | AAAACTTA | -0.0278 ± 0.071
8 | AGCCAAGG | -0.0291 ± 0.055
9 | TACATATA | -0.294 ± 0.032
10 | TCACAGGA | 0.236 ± 0.01
11 | CCATCTTC | -0.0429 ± 0.023
12 | TGTTGTAA | 0.221 ± 0.016
13 | AGACTAGA | -0.195 ± 0.017
14 | GGTCCGAA | -0.173 ± 0.029
15 | ACACCAAC | 0.338 ± 0.0059
16 | GCGGAACC | -0.185 ± 0.06
17 | ACGCTACA | 0.0609 ± 0.005
18 | CAACGTGA | 0.168 ± 0.029
19 | ATGATGCG | 0.104 ± 0.0042
20 | CCGCGCCG | -0.2096 ± 0.00042
21 | CCCGAGTC | -0.215 ± 0.031
22 | CACACCAC | 0.406 ± 0.012

Row | Sequence | PBM E-score of 8-mer
23 | AATCCTTC | -0.171 ± 0.051
24 | TACGTTCA | -0.0836 ± 0.055
25 | AAACTGCG | 0.119 ± 0.018
26 | ATGCGCGG | -0.15 ± 0.099
27 | GTTTGTTA | 0.115 ± 0.015
28 | ATTGATCG | -0.0981 ± 0.03
29 | ATGGCAGA | -0.0257 ± 0.063
30 | CACGTACG | 0.253 ± 0.017
31 | AGACGGTC | -0.184 ± 0.014
32 | TGAGAGAA | 0.0636 ± 0.079
33 | ATAGCGAA | 0.00406 ± 0.04
34 | GTCACAGA | 0.0466 ± 0.051
35 | CCCTCTAA | -0.172 ± 0.097
36 | CAACTCGC | 0.296 ± 0.027
37 | ACCTAGAT | 0.0708 ± 0.0022
38 | CGTCCGTA | -0.0501 ± 0.025
39 | CTTGTCCA | -0.0373 ± 0.036
40 | CAACAATC | 0.147 ± 0.0091
41 | CTTATTTA | -0.284 ± 0.1
42 | TAGGCCGA | -0.0616 ± 0.048
43 | GCACCGGA | 0.063 ± 0.0078
44 | CCAATACC | -0.111 ± 0.0074

Row | Sequence | PBM E-score of 8-mer
45 | CAACATGC | 0.0363 ± 0.04
46 | CTGTTTTA | 0.0135 ± 0.11
47 | CGAGTGGA | 0.133 ± 0.039
48 | AAAAGGTC | -0.0764 ± 0.033
49 | CGGCGCGC | 0.161 ± 0.0044
50 | ATCCAAAC | -0.236 ± 0.05
51 | AGATTCAC | 0.0897 ± 0.086
52 | AACCAGCC | -0.0414 ± 0.071
53 | TATATGGA | -0.225 ± 0.032
54 | ACGTGTTC | 0.2198 ± 0.001
55 | TACGCTAA | 0.122 ± 0.012
56 | CAAAAAAA | -0.183 ± 0.093
57 | CATCAGCG | 0.0643 ± 0.089
58 | AGTTCCAC | -0.125 ± 0.031
59 | CCGTAGAC | -0.229 ± 0.022
60 | ACCTTCCT | 0.0979 ± 0.013
61 | AACCCCTC | 0.0579 ± 0.061
62 | CAATAACG | 0.0278 ± 0.018
63 | CCCGATAA | 0.105 ± 0.034
64 | TCTGTGAA | 0.253 ± 0.0052
65 | CCAAGTGG | 0.00965 ± 0.033
66 | TATATTCA | -0.0222 ± 0.1

Row | Sequence | PBM E-score of 8-mer
67 | GTATTGCA | -0.0787 ± 0.025
68 | CGCTCGGA | -0.212 ± 0.00066
69 | CAGTTATA | -0.0853 ± 0.032
70 | TAGTACCA | 0.0636 ± 0.0024
71 | AGTCGACG | 0.181 ± 0.059
72 | AGAGCACC | -0.108 ± 0.084
73 | ATTAACTC | -0.00281 ± 0.0078
74 | TGGCGCAA | 0.244 ± 0.028
75 | GCCGTGAA | 0.293 ± 0.014
76 | GGTGTCTA | 0.376 ± 0.007
77 | AGGGTAGC | 0.0784 ± 0.044
78 | GGGTGAAA | 0.0558 ± 0.043
79 | AGATTAAG | -0.189 ± 0.04
80 | AGCCGAGC | 0.0261 ± 0.069
81 | CATGCGTC | -0.166 ± 0.023
82 | ATATCTCG | 0.0341 ± 0.0036
83 | CGGTATGA | -0.169 ± 0.057
84 | GAGCGTCA | 0.141 ± 0.01
85 | GAGCGAAC | 0.0537 ± 0.089
86 | TCAATACA | 0.0169 ± 0.05
87 | GTGTGCTA | 0.3066 ± 0.0011
88 | ATAACACC | 0.465 ± 0.0066

Row | Sequence | PBM E-score of 8-mer
89 | AATGAAAG | 0.12 ± 0.046
90 | AAGAGTCA | -0.136 ± 0.015
91 | AGCGAGTG | 0.184 ± 0.025
92 | CCTAGAGG | -0.0482 ± 0.018
93 | AAGTTACT | -0.169 ± 0.019
94 | GTTGACCA | 0.0825 ± 0.023
95 | ACTATACC | -0.00992 ± 0.066
96 | CGTACGGA | -0.184 ± 0.0045
97 | ATAAGCAG | 0.0168 ± 0.015
98 | ACCCGGGC | 0.117 ± 0.01
99 | CGCGCGCA | 0.18 ± 0.001
100 | ATCCTCGC | 0.196 ± 0.043
101 | GCACGTCC | 0.239 ± 0.0056
102 | TGTTCTAA | -0.155 ± 0.042
103 | AACGGGAC | -0.0811 ± 0.027
104 | CACCCCGA | 0.259 ± 0.018
105 | GTAGGATA | -0.0979 ± 0.0081
106 | ACGAGAAG | -0.0854 ± 0.037
107 | CTAGTACC | 0.042 ± 0.052
108 | TAAGCATA | -0.226 ± 0.023
109 | ATGAAGTC | -0.15 ± 0.06
